# Measured values: the supplement of paper PMC8728848
# The other results are listed elsewhere or left out.
# B1: IRp60B (Homo sapiens), Q9UGN4-3 (protein)
# chain: MWLPWALLLLWVPAGDHSELSQNPKQAATQSELHYANLELLMWPLQEKPAPPREVEVEYSTVASPREELHYASVVFDSNTNRIAAQRPREEEPDSDYSVIRKT
# Assays:
# Test in all cases: glycan array binding signal (z-score within array); higher = stronger binding
# Details in all cases: glycan notation: IUPAC condensed, linker removed
# [1] = molecular target: Gal(b1-3)[GlcNAc(b1-6)]GalNAc
# Summary of the method: (§1)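 The binding signal is a Z-score computed within each array. Data were drawn from 3228 arrays in the Consortium for Functional Glycomics database, restricted to those with a known protein sequence. Scores were averaged over arrays of the same protein sequence at different concentrations or buffers, and over linkers, and negative values can be taken as non-binding.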
# [2] = molecular target: Gal(b1-3)[Neu5Ac(a2-6)]GalNAc
# Summary of the method: as §1
# [3] = molecular target: Gal(b1-3)[Neu5Ac(a2-6)]GlcNAc(b1-4)Gal(b1-4)Glc
# Summary of the method: as §1
# [4] = molecular target: Gal(b1-3)[Neu5Ac(b2-6)]GalNAc
# Summary of the method: as §1
# [5] = molecular target: Gal(b1-4)GalNAc(a1-3)[Fuc(a1-2)]Gal(b1-4)GlcNAc
# Summary of the method: as §1
# [6] = molecular target: Gal(b1-4)Glc
# Summary of the method: as §1
# [7] = molecular target: Gal(b1-4)Glc6S
# Summary of the method: as §1
# [8] = molecular target: Gal(b1-4)GlcNAc
# Summary of the method: as §1
# [9] = molecular target: Gal(b1-4)GlcNAc(b1-3)Gal(b1-4)Glc
# Summary of the method: as §1
# [10] = molecular target: Gal(b1-4)GlcNAc(b1-3)Gal(b1-4)GlcNAc
# Summary of the method: as §1
# [11] = molecular target: Gal(b1-4)GlcNAc(b1-3)Gal(b1-4)GlcNAc(b1-3)Gal(b1-4)GlcNAc
# Summary of the method: as §1
# [12] = molecular target: Gal(b1-4)GlcNAc(b1-3)Gal(b1-4)[Fuc(a1-3)]GlcNAc(b1-3)Gal(b1-4)[Fuc(a1-3)]GlcNAc
# Summary of the method: as §1
# [13] = molecular target: Gal(b1-4)GlcNAc(b1-3)GalNAc
# Summary of the method: as §1
# [14] = molecular target: Gal(b1-4)GlcNAc(b1-3)[Gal(b1-4)GlcNAc(b1-6)]GalNAc
# Summary of the method: as §1
# [15] = molecular target: Gal(b1-4)GlcNAc(b1-6)GalNAc
# Summary of the method: as §1
# [16] = molecular target: Gal(b1-4)GlcNAc(b1-6)[Gal(b1-3)]GalNAc
# Summary of the method: as §1
# [17] = molecular target: Gal3S(b1-3)GalNAc
# Summary of the method: as §1
# [18] = molecular target: Gal3S(b1-3)GlcNAc
# Summary of the method: as §1
# [19] = molecular target: Gal3S(b1-3)[Fuc(a1-4)]GlcNAc
# Summary of the method: as §1
# [20] = molecular target: Gal3S(b1-4)Glc
# Summary of the method: as §1
# [21] = molecular target: Gal3S(b1-4)Glc6S
# Summary of the method: as §1
# [22] = molecular target: Gal3S(b1-4)GlcNAc
# Summary of the method: as §1
# [23] = molecular target: Gal4S(b1-4)GlcNAc
# Summary of the method: as §1
# [24] = molecular target: Gal6S(b1-4)Glc
# Summary of the method: as §1
# [25] = molecular target: Gal6S(b1-4)Glc6S
# Summary of the method: as §1
# [26] = molecular target: GalNAc(a1-3)Gal
# Summary of the method: as §1
# [27] = molecular target: GalNAc(a1-3)GalNAc
# Summary of the method: as §1
# [28] = molecular target: GalNAc(b1-3)GalNAc
# Summary of the method: as §1
# [29] = molecular target: GalNAc(b1-4)GlcNAc
# Summary of the method: as §1
# [30] = molecular target: Glc(a1-4)Glc
# Summary of the method: as §1
# [31] = molecular target: Glc(b1-4)Glc
# Summary of the method: as §1
# [32] = molecular target: Glc(b1-6)Glc
# Summary of the method: as §1
# [33] = molecular target: GlcNAc(b1-2)Gal(b1-3)GalNAc
# Summary of the method: as §1
# [34] = molecular target: GlcNAc(b1-3)Gal
# Summary of the method: as §1
# [35] = molecular target: GlcNAc(b1-3)Gal(b1-3)GalNAc
# Summary of the method: as §1
# [36] = molecular target: GlcNAc(b1-3)Gal(b1-4)Glc
# Summary of the method: as §1
# [37] = molecular target: GlcNAc(b1-3)Gal(b1-4)GlcNAc
# Summary of the method: as §1
# [38] = molecular target: GlcNAc(b1-3)[GlcNAc(b1-6)]GalNAc
# Summary of the method: as §1
# [39] = molecular target: GlcNAc(b1-3)[GlcNAc(b1-6)]GlcNAc(b1-4)GlcNAc
# Summary of the method: as §1
# [40] = molecular target: GlcNAc(b1-4)GlcNAc(b1-4)GlcNAc
# Summary of the method: as §1
# [41] = molecular target: GlcNAc(b1-4)[GlcNAc(b1-6)]GalNAc
# Summary of the method: as §1
# [42] = molecular target: GlcNAc(b1-6)GalNAc
# Summary of the method: as §1
# [43] = molecular target: Kdn(a2-3)Gal(b1-3)GlcNAc
# Summary of the method: as §1
# [44] = molecular target: Kdn(a2-3)Gal(b1-4)GlcNAc
# Summary of the method: as §1
# [45] = molecular target: Man(a1-2)Man(a1-2)Man(a1-3)Man
# Summary of the method: as §1
binder,measurement,setting,value
B1,glycan array binding signal (z-score),[1],-0.429
same,glycan array binding signal (z-score),[2],-0.039
same,glycan array binding signal (z-score),[3],-0.494
same,glycan array binding signal (z-score),[4],0.306
same,glycan array binding signal (z-score),[5],-0.378
same,glycan array binding signal (z-score),[6],1.38
same,glycan array binding signal (z-score),[7],-0.392
same,glycan array binding signal (z-score),[8],-0.346
same,glycan array binding signal (z-score),[9],-0.397
same,glycan array binding signal (z-score),[10],0.355
same,glycan array binding signal (z-score),[11],0.061
same,glycan array binding signal (z-score),[12],-0.518
same,glycan array binding signal (z-score),[13],-0.292
same,glycan array binding signal (z-score),[14],4.42
same,glycan array binding signal (z-score),[15],-0.322
same,glycan array binding signal (z-score),[16],-0.22
same,glycan array binding signal (z-score),[17],0.74
same,glycan array binding signal (z-score),[18],-0.322
same,glycan array binding signal (z-score),[19],4.5
same,glycan array binding signal (z-score),[20],-0.451
same,glycan array binding signal (z-score),[21],1.02
same,glycan array binding signal (z-score),[22],-0.281
same,glycan array binding signal (z-score),[23],-0.324
same,glycan array binding signal (z-score),[24],-0.24
same,glycan array binding signal (z-score),[25],-0.421
same,glycan array binding signal (z-score),[26],0.046
same,glycan array binding signal (z-score),[27],-0.293
same,glycan array binding signal (z-score),[28],-0.335
same,glycan array binding signal (z-score),[29],-0.348
same,glycan array binding signal (z-score),[30],-0.26
same,glycan array binding signal (z-score),[31],0.079
same,glycan array binding signal (z-score),[32],-0.442
same,glycan array binding signal (z-score),[33],-0.44
same,glycan array binding signal (z-score),[34],-0.256
same,glycan array binding signal (z-score),[35],-0.428
same,glycan array binding signal (z-score),[36],-0.382
same,glycan array binding signal (z-score),[37],-0.41
same,glycan array binding signal (z-score),[38],-0.326
same,glycan array binding signal (z-score),[39],-0.47
same,glycan array binding signal (z-score),[40],-0.244
same,glycan array binding signal (z-score),[41],-0.426
same,glycan array binding signal (z-score),[42],0.761
same,glycan array binding signal (z-score),[43],-0.473
same,glycan array binding signal (z-score),[44],-0.33
same,glycan array binding signal (z-score),[45],-0.27
